Measured values from the RNAGym collection of RNA variant scans (doi:10.7554/elife.90254).
Read counts are not given, so values of variants with three or more changes are uncertain.

B1: LINE1-mini (parent)
chain: GGCAGAGCUCAACACAGCGUGGCAAAGUGGCUGUGGCUAGACUGCC

Variants of: B1
Assay: self-cleavage, relative activity (ratio to wild type); higher = more cleavage; in vitro, sequencing; the parent is a self-cleaving ribozyme

Row | Variant | self-cleavage
1 | A11U A25C G29C | 0.18
2 | A12G A16C A39G | 0
3 | A12C U38G C42A | 0.01
4 | A12C G17A A26C U28C G35C C37A | 0.02
5 | A11G G19A G22A | 0.03
6 | A11U A24G G44C | 0.05
7 | A12C C15G A24G | 0.01
8 | A11G G27U C46A | 0.02
9 | A12G A24U A26U G44C | 0.02
10 | A11U G27U U28G G35U G44U | 0.01
11 | A11U U34G G36U | 0.01
12 | A11G C23U G36U C45G | 0.02
13 | A11G C31U C37A C42A | 0
14 | A12G A16C A26U C42G | 0.05
15 | A11G U32G G33C U43A | 0
16 | A11G C13A U20C C23A | 0.01
17 | A11G C31U C45G | 0.04
18 | A12C G17U C46U | 0.01
19 | A11G G17A G35A | 0.02
20 | A11G A24U C42A | 0.02
21 | A11U G17C C42A | 0.02
22 | A11U A14U C23U G29C G36C | 0.01
23 | A11U C13A G27C A41U | 0.03
24 | A12C G17U U20A G40A C42U | 0

Row | Variant | self-cleavage
25 | A12C U38C G40A | 0.01
26 | A11G G40C C46U | 0.02
27 | A12C U32A G35U C42G | 0.02
28 | A11U A14U U32A G36U A39C | 0.02
29 | A11G G17A U28C C37G U43C | 0
30 | A12C G21U C23U A26C | 0.03
31 | A12C C18A G27C | 0.05
32 | A11G A12U G21U | 0.02
33 | A12C G19A G21A G22C A39U | 0.01
34 | A11G C18A G30C G40C A41U | 0
35 | A11U A12C G40C | 0
36 | A11G U20C A25U | 0.04
37 | A12C A14U C18A G21U U32G | 0
38 | A11G A14G C15A G35U C42G | 0
39 | A12G C15U C31A C37U G40C | 0.03
40 | A11U G29U G40C | 0.02
41 | A11G U28C G33A | 0.02
42 | A12G C15G A25U G27U | 0.01
43 | A12G C13G C15U G17U G21C A24G | 0.05
44 | A11G A16G A24G C31A | 0.02
45 | A12C C15U G22C C45A | 0.03
46 | A11G G27U G29U G40U | 0.01
47 | A11U A25G C31G U34A G36A A41U | 0.01
48 | A11G U32A U43A | 0.03

Row | Variant | self-cleavage
49 | A12G A14U G35U | 0.01
50 | A12G A16G A39C | 0
51 | A12C G22U C23A A26U A41C C46U | 0.03
52 | A12C A26G U32C C46G | 0.05
53 | A11G C31U G36C | 0.04
54 | A12C U28G G33C | 0.01
55 | A11G C23A G33C G40U C45U | 0
56 | A11G U28A C42A | 0
57 | A11G G36A G40U C45G | 0
58 | A12C G22U A26G G29C C46A | 0
59 | A11U C23G U32A | 0.01
60 | A11U G33U G36A A39G U43A | 0.01
61 | A11U U34A C46U | 0.05
62 | A12G A16C C18G G40U | 0.17
63 | A11U G22A U28A C42G | 0
64 | A11G C15G U32G G40A | 0
65 | A12C C15A G35U G40A | 0.03
66 | A12C C37A U38G | 0.02
67 | A12C G40U A41C | 0.06
68 | A11U G22C U38A | 0.03
69 | A11G C31U G35A G36U U43C C45A | 0.02
70 | A11U G19A C31A G40U | 0
71 | A12G A41U C42A | 0.01
72 | A12C C15A G22C G30C | 0.03

Row | Variant | self-cleavage
73 | A12C A16G C31G G40U C42U | 0.01
74 | A12C U20G A24G G27A | 0.02
75 | A12C G36U G40U | 0.06
76 | A11G C13A U43C | 0.04
77 | A11U C15G A16U G19A C31A G36A | 0.02
78 | A11G A14C C18A U38G | 0
79 | A12G A14U C15A U34C | 0.02
80 | A11U A39C U43A | 0.02
81 | A12C U28A G30A A41C | 0
82 | A11G G17U U34G G36U | 0.02
83 | A12C G27U G33U C37U | 0
84 | A11G G30U C37U G44U | 0.01
85 | A12G C13G G22C G29A G36A | 0.06
86 | A12C G21C U28G G40U | 0
87 | A11U C13G A14U A16G | 0.01
88 | A11U G33A G44C C45G | 0.02
89 | A12G A26C G40U C45A | 0.04
90 | A11G A12U G29C C31A | 0.02
91 | A12G C15U C31U G40U | 0
92 | A11G C31A U34A U38C | 0
93 | A11U G33U A41U C46U | 0.01
94 | A11U C13G C15G A26G | 0
95 | A12C A14C C15U G27A | 0.02
96 | A11U A14G G30U G44C | 0.01

Row | Variant | self-cleavage
97 | A12C G17U A24C A39U U43G | 0
98 | A11U C15G G27U G29A | 0.01
99 | A11U G17C U34G | 0.01
100 | A11U A24C G36U C37G | 0
101 | A11G G19A G33U | 0.04
102 | A11U G36C G40U | 0.02
103 | A11U A16C G21A | 0.02
104 | A11G U20G G29C G35A | 0.01
105 | A11U A25U G30A C31A | 0.03
106 | A12G C13A G17C C23U A25C | 0.03
107 | A11U U28A G30C G40U | 0.02
108 | A12C G21A C45A | 0
109 | A11U C13A G27A G30U C46A | 0.05
110 | A11G G33A C42A G44U | 0.02
111 | A12C G19C C31G | 0.04
112 | A11U A14G A25G G35C | 0
113 | A12C A16U U32G C42A | 0
114 | A11G C13G G19A U28C G29A U32G G36C A41U | 0.01
115 | A11G C23U U34C U38G C46G | 0
116 | A11U A24G U32A | 0
117 | A12C C13G A39C | 0
118 | A11G G21A G29C | 0.02
119 | A12C G27A A41C C42A | 0
120 | A12C G17A G22A A26U C31A | 0.04

Row | Variant | self-cleavage
121 | A11G C15A G21U U38A A39C C46G | 0
122 | A11U G30U C46U | 0.09
123 | A12C C31A G40U | 0.01
124 | A11G G17U G40C C45G | 0.01
125 | A12C G21U U43C | 0.01
126 | A11U A24C C42U | 0.07
127 | A11G C18U G22C A24G U32C G36U C46G | 0.01
128 | A11G A26C C31A G33A | 0.02
129 | A11U C15U G33A C37U | 0.01
130 | A11U C37G U38C C45A | 0.02
131 | A11U A25U A39U | 0.11
132 | A12C C23U G36U C37G | 0.02
133 | A11G A14C C46G | 0.12
134 | A12C A24G U28A G36U | 0
135 | A11G G30U U38C | 0.03
136 | A11G A14U A26G G44U | 0.01
137 | A11G A14U U32C G35U G44C | 0
138 | A11U C13G A25U G44A | 0.01
139 | A11U U28C C42U | 0.1
140 | A12C A14U A16C | 0.03
141 | A11G G19C U28A | 0.01
142 | A11U G33U G40C G44A | 0.01
143 | A11G C15A A24C G27C C42A G44U | 0.01
144 | A11G A16C G21A C46U | 0

Row | Variant | self-cleavage
145 | A12G C13U C23U G33A | 0
146 | A12G C13A C37U C46A | 0.03
147 | A12G A39U A41U | 0.13
148 | A12C C15U G35U | 0.02
149 | A12C G35U G44C | 0
150 | A12C G27C C31G | 0
151 | A11U C18U C23G | 0.05
152 | A12G C18G U43C | 0.02
153 | A11U C13A A41C | 0.08
154 | A12G C15A A16U G29A U32G U34A G36U C37U | 0.03
155 | A12C C37U A39G | 0
156 | A12C A14G C23U | 0.01
157 | A11U C23A G30A | 0.24
158 | A12G C13A C23G C31G C42A C45G | 0.06
159 | A12G A41C C42A | 0.01
160 | A11U G27C U32A | 0
161 | A11U G27C U32C | 0.02
162 | A11G C13A A25U | 0.04
163 | A12C C18G A25G A39U | 0.02
164 | A12C C18G G27C C37A | 0.02
165 | A11G C15A G21A A24G | 0.02
166 | A12G A25G A41U | 0.03
167 | A12C A26G U43A | 0.01
